Here are results for 109 sequences from article PMC5836133.

Some of the results follow. At the low end of the ranking, values are background and their order means little.

The test system of this experiment is T1, GST-NbGlk1(82-244).
T1 sequence: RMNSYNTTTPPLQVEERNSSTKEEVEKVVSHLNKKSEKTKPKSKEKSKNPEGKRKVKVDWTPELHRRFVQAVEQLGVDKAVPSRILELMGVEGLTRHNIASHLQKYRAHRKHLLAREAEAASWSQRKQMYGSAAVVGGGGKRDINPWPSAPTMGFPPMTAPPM
Briefly: protein-binding microarray.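 Further: rank-based score ranging −0.5 to +0.5 with E above 0.45 taken as significant binding.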 Particulars: NbGlk1 is a Golden2-like transcription factor of Nicotiana benthamiana; high values mean tight binding; most listed sequences are background and not binding sites; double strand, one strand shown.
For the sequence CAACCGAG, the binding signal is -0.204 E-score. As for AAAGCGTA, the figure is 0.0465 E-score; as for AAGTTTGG, -0.0316 E-score; as for AGCGGTAC, -0.0799 E-score. As for ACTCATCG, the figure is -0.0979 E-score. As for ATGCCGTA, the figure is 0.0205 E-score; as for ACTCTTGG, -0.074 E-score. For CAATTGCC, the binding signal was -0.0514 E-score. As for AGGAGCGC, the figure is -0.161 E-score.

For ATTAGTGC, the binding signal came to 0.0058 E-score.

As for ACGTATAA, the binding signal came out at 0.241 E-score. As for ACGGATAT, the figure is 0.381 E-score; as for AGTAGTAG, -0.0939 E-score; as for AATGCAGT, -0.0297 E-score. As for AGTAAACT, the figure is -0.118 E-score. As for ACTACGGC, the figure is -0.172 E-score; as for AAGATTGA, 0.0479 E-score; as for AGGGTCTA, -0.268 E-score. ACCTTCTC showed a binding signal of -0.113 E-score.

AATTGTGA came in with a binding signal of 0.0924 E-score. As for AGTTATTC, the figure is 0.0977 E-score.

Sequence AGCATGCC registered a binding signal of -0.212 E-score. As for ATCGGCCA, the figure is -0.00614 E-score. As for ACAAACGT, the figure is -0.0435 E-score; as for AATGGTCT, -0.2 E-score; as for ACGCTGTG, -0.179 E-score. As for ACACCGGC, the figure is -0.287 E-score; as for ATGAGATG, 0.0471 E-score. In the case of AATCGGAG, the binding signal came out at 0.182 E-score. As for ACACTTAT, the figure is 0.0533 E-score.

As for CAAGGCTC, the binding signal is -0.22 E-score. As for ATCAGGAA, the figure is 0.288 E-score; as for ATGGTTTG, -0.109 E-score; as for AGGTTACA, 0.053 E-score. Consider AGGTGTCC, for which the binding signal is -0.195 E-score. As for ATACACTG, the figure is -0.0577 E-score. As for ACAAAGAG, the figure is -0.012 E-score; as for AAAACCAA, 0.0786 E-score. AAGTGCTG came in with a binding signal of -0.187 E-score. As for ATCTAGAC, the figure is 0.287 E-score; as for ATTGGCGA, 0.123 E-score; as for ATTCTCTC, 0.269 E-score. As for ACATATTA, the figure is 0.172 E-score.

Sequence ATGAGCAT had a binding signal of -0.17 E-score.

ACCCACGT gave a binding signal of -0.207 E-score. As for ACAAGAAC, the figure is -0.00628 E-score; as for AGAGAAGA, -0.00289 E-score; as for AGGCTAGC, -0.285 E-score. As for ACGATCGA, the figure is 0.134 E-score; as for ACGCGACA, 0.0352 E-score; as for AGAGTACT, -0.0962 E-score. As for CAACGTAA, the figure is 0.148 E-score; as for ATGTCTGA, 0.0128 E-score.

In turn, ATATTGAA gave a binding signal of 0.203 E-score. For AGCAGGCG, the binding signal was -0.248 E-score. For ATAGCCCG, the binding signal is -0.162 E-score. In turn, CACGGAGA showed a binding signal of 0.0492 E-score. As for AAGTACGA, the figure is 0.127 E-score; as for CACGTGCA, -0.00175 E-score. As for CACCCGAG, the figure is -0.155 E-score; as for ACAGACCT, -0.172 E-score.

As for ATCCGCCA, the binding signal was found to be 0.254 E-score. As for CACTGACG, the figure is -0.0467 E-score; as for ACACGCAG, -0.0752 E-score; as for AGCCTTCA, -0.282 E-score. As for AATTGGAG, the figure is 0.0169 E-score; as for AGGCCAAC, -0.225 E-score; as for AAGAGCGT, 0.0232 E-score.

Consider ATCTGTGA, for which the binding signal amounted to 0.344 E-score. As for CACAAGTC, the figure is -0.0923 E-score; as for ATCCTTAA, 0.226 E-score. As for ATTCGGAA, the figure is 0.123 E-score.

AGGAAGCC: the binding signal was -0.236 E-score. As for AATGAAAA, the figure is 0.0916 E-score; as for CAGCGTTA, 0.0912 E-score; as for AACCTTCG, -0.227 E-score.

On to AAAACTGC, for which the binding signal is -0.0562 E-score. As for CAGATATA, the figure is 0.173 E-score. As for ATATTTTC, the figure is 0.363 E-score; as for ACCAAGTG, -0.0953 E-score. As for CACACGTC, the binding signal is -0.166 E-score. As for ACGTTCCC, the figure is -0.27 E-score; as for ACTTCTAG, -0.14 E-score; as for AGATTACA, 0.477 E-score.

With AATGTCAA, the binding signal stood at 0.015 E-score. As for AGTATGAG, the figure is 0.00401 E-score; as for ATATCGAC, 0.32 E-score; as for CAGCACTA, -0.16 E-score. As for ATAGCTGA, the figure is -0.0287 E-score. As to ACAGTGGA, the binding signal stood at 0.00465 E-score.

The sequence AAAAACAT showed a binding signal of -0.00134 E-score. As for AGATTAAT, the figure is 0.151 E-score; as for CAGCCAAA, 0.00889 E-score; as for ATCTGTGC, 0.231 E-score.

Sequence ACTATCCG displayed a binding signal of 0.111 E-score. As for CAGCAGGG, the figure is -0.211 E-score.

With AAAGCGAT, the binding signal amounted to 0.215 E-score. As for AAATTTTC, the figure is 0.273 E-score; as for AAAGCGCT, -0.123 E-score; as for AGTCACCG, -0.156 E-score. As for AATCCTAG, the figure is 0.388 E-score; as for ACTTTCGA, 0.0194 E-score. As for CACCGACC, the binding signal is -0.156 E-score. As for ACTAACCT, the figure is -0.122 E-score; as for ATTATGAA, 0.0803 E-score. The sequence ATAGCTAC had a binding signal of -0.046 E-score. As for ACTTAACA, the figure is 0.108 E-score.

As to ATCCATGC, the binding signal was determined as 0.206 E-score. As for AATTGCAG, the figure is 0.0378 E-score.
